Data reported in the supplement of paper PMC11417369.
Some of the results follow.

Tested on: PfAP2-HC AP2 domain (GST-tagged)
Experiment: gcPBM binding intensity (ln(normalized median fluorescence intensity)); higher = stronger DNA binding
Outline: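 The binding buffer was 1× PBS containing 1% milk, 0.2 mg/ml BSA, 0.5% salmon testes DNA and 0.03% Triton X-100. In it, GST-tagged P. falciparum DNA-binding domains expressed in E. coli were applied for 1 h to an Agilent 4 × 180k array of primer-extended double-stranded 36-bp intergenic genomic probes plus negative controls. Binding intensity, read with Alexa488 anti-GST antibody and a 488 nm scan, is the highest Masliner-normalised natural-log median intensity across replicate spots of either probe orientation.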

Sequence | gcPBM binding intensity (ln)
CATATATTTTGAAACACACACATATATAATATACAT [CACACA_site1158] | 10.4
ATAACAAAATGAAGAGTGCATTACCAAGTGGGTAAA [GTGCAC_site9450] | 9.89
ATATTTAAGGCGTGTATGCACACGACTATTCCGTAT [CACACA_site1080] | 9.79
TTAATTTGTTCTTACACACACATATAAATATATTTA [CACACA_site6676] | 9.92
TATTTTGTTTTAAAAGTACACACTTTTAATTAGATT [CACACA_site1180] | 9.51
AATATATATACTATAACACACATACACCCAAAAAAA [CACACA_site4453] | 10.2
TTATATGGATATACAGTGCATATATACATATAAGTG | 9.69
CATACCTTTTAATGTACACACATTTCTTTTTTGTTA [CACACA_site892] | 10
AAAAAAAAAAGAAACACACACATATATATATAGAAT [CACACA_site1777] | 10.3
ATGTATTAAAATTTATGTACTTATATATAAATATAT [XGTACX_site1025] | 9.62
TATATGTATTTGTATACACACAAATGTATATATTTA [CACACA_site1265] | 9.73
TATAAACATAATATTTAACACACATGAAGATGTATA [CACACA_site8252] | 9.73
ATTATTATATATGTATGTACTTATATAATATATATA [XGTACX_site5198] | 9.46
TATATATTGTTATATACACACATGTATTTAAAAAAT [CACACA_site5737] | 9.65
TTAACAAAACATAAGGTGCTTAAAATTTTATATCAC [GTGCAC_site9839] | 9.53
TCTGTTAAACAAAAAAGTACTAAAATAATGTAAAAT [XGTACX_site6826] | 9.58
TACCTATATAGACACACACACATATATTTATTTATA [CACACA_site6728] | 10.4
ATATGTACAAGTGTTTATGCTGAACGGAAATCCTGT [CACACA_negctrl_site1372] | 9.69
CGCACAGACGGACACACACACACATATATATATATA [CACACA_site5249] | 11.1

Sequence | gcPBM binding intensity (ln)
TTTTTTTTTATATAAAAAAAAATTTTTATTATTTTA [GTGCAC_negctrl_site347] | 9.24
ATAATTGTCCATTTTTTCTTTTTTTTTTTCTTTTTA [CACACA_negctrl_site928] | 9.68
TTCTCCTAATAGTTAGTGCACTACATAACTAAGAAA | 9.48
AAAAAAAAAAAAAAAACACACATTTAGCAATCTACA [CACACA_site3706] | 9.6
TACATATATTATACATGTACACATTTATACATATCG [XGTACX_site2866] | 9.84
ATATGATCATACTGTGCATGTTAATGCAAATTTTAT [TGCATGCA_site984] | 9.75
TTAATATAATAAAATCGTACAAATAAAATATAAAAT [XGTACX_site8730] | 9.73
AAAAATGAGAAACACACACACATATATATATATATA [CACACA_site2228] | 10.1
TCTTTAAATCGAGTGTTAAATAATATAATATAAAAA [CACACA_negctrl_site1507] | 9.34
AACCAATATGAGTATACACACATAAATATAAATATA [CACACA_site5968] | 10.1
AAAAAAAAAAAAGATACACACAAAAATGGATATATA [CACACA_site7069] | 9.9
ATATATATATATCACCGTACTTATATAATAACATGA [XGTACX_site4398] | 9.67
TTTTTTTTTTATTTTTGTACATATATTTCAGTATTA [XGTACX_site8396] | 9.67
TAATTATTCTATTAAGTGCATATATTTTTAAAAAGA | 9.32
ATTTTTATTAAAATATGTACGTATTTTACTCATACA [XGTACX_site5330] | 9.72
ATACAGAAAAAAAACACACACACATAATATACATAC [CACACA_site1933] | 10.8
ATAATATTCGAGTGTGCACACAAACATACATATATA [CACACA_site3396] | 10.3
ACAGATATATTTATTTGTACATATCACCAAAATGGA [XGTACX_site5644] | 9.49
TACAGATATTATTGCACACATATAAAATACCCCCAA [CACACA_site6014] | 10.3

Sequence | gcPBM binding intensity (ln)
TTACGTTATATACATACACACCCACGCACAAAAAAA [CACACA_site6537] | 10.6
ATTAAATACTTCGATTGTACAATTTTTTTTTTTTTT [XGTACX_site832] | 9.65
TAAGAATAATGACATAGTACAATTTAATAGATCTAA [XGTACX_site3670] | 9.68
TTTTCAAAATAATATTATATCAAATGCTAAAAAGAA [TGCATGCA_negctrl_site588] | 9.43
TAATATTTATGTTAATGTACAAAAAAACAAAACAAA [XGTACX_site301] | 9.64
GTATGTATATATGTATGTACTTATGTATCATTATTA [XGTACX_site2438] | 9.74
ATAATATATATTAAACGTACATAAAATAATTATGGA [XGTACX_site1670] | 9.81
AATTAAATTAGAAGCACACACATATTTATATTTATA [CACACA_site7552] | 10
GTATATATTTAAACACGTACACAAAACCCAAAAAAT [XGTACX_site8110] | 9.95
ATACACTCACTCACACGTACAGACAACGGACGATCA [XGTACX_site1097] | 9.72
GAAAAAAAAAAAAAAAAAAAAAGGAAAAAAGTGAAA [CACACA_negctrl_site996] | 9.38
ATAAAACAATAAAATTGTACATAAATTGATTATACT [XGTACX_site6723] | 9.78
ACGTTTACGTTATTATGTACGTAATATATCATACCT [XGTACX_site5006] | 9.64
GAATAAATAGACGAGTGTACTTTTTTTTAAAAAAAA [XGTACX_site7880] | 9.65
TGAGAGTTCTCATATGCACACAAAAAACTTTCATTT [CACACA_site7898] | 9.67
TTGCAACTCTTCAATCGTACACATTATTTATTATAT [XGTACX_site1377] | 9.89
TACATATACATATACACACACACACCCAAATAAATA [CACACA_site1344] | 10.5
AATAATAACACCGTGGATACACAATAACAAAGAACT [CACACA_negctrl_site532] | 10.2
AAATATTTTTTTTCTACACACATACAAATATATATT [CACACA_site5325] | 9.93
